# Test results as given in the supplement of paper PMC4166925.
# ± gives the standard deviation of the averaged measurements. The full ranking holds about 33,000 sequences; the median of “E-score (dimensionless, -0.5 to 0.5)” is about -0.049, and the highest 2% start at about 0.37. The list shows a part of the results.
# Tested on: T1, PmTbr T-box DNA-binding domain (GST fusion)
# T1 sequence: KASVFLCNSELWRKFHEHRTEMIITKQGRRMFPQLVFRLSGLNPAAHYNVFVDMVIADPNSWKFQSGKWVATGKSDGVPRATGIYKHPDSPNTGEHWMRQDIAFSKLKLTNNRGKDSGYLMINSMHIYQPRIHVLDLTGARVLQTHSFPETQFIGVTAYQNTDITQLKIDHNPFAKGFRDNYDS
# Test: PBM E-score of 8-mer (E-score (dimensionless, -0.5 to 0.5)); Tbr is Tbrain of the sea star Patiria miniata (Pm) or the sea urchin Strongylocentrotus purpuratus (Sp); higher = stronger binding preference; most listed sequences are background and not binding sites
# Settings: the construct has about 5 more residues each side
# In short: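 Expression of GST-fused Tbr T-box DNA-binding domains, each holding the full T-box plus roughly five flanking residues, was carried out in BL21 E. coli at 20 °C, with purification by glutathione affinity chromatography. Universal Agilent arrays made double-stranded by primer extension were incubated with the protein at 200 nM in PBS (pH 7.5), then scanned and quantified. All ungapped 8-mers were scored from probe intensities, and each received an enrichment E-score from the Universal PBM Analysis Suite, averaged over duplicate arrays.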
row,Sequence,PBM E-score of 8-mer
1,CATAAACG,-0.149 ± 0.043
2,ACACATCG,0.382 ± 0.017
3,CTGTCGCA,0.224 ± 0.064
4,ATAACGGC,-0.0165 ± 0.059
5,ATTGCTTA,-0.151 ± 0.11
6,ACCAGAAT,-0.0127 ± 0.054
7,CAGCTTAG,-0.0623 ± 0.0095
8,ATTTGCAC,0.289 ± 0.054
9,GGCGTCAA,0.4094 ± 0.001
10,ATTTTGTG,0.133 ± 0.025
11,ACCCGCAT,0.062 ± 0.016
12,CCACAGCG,-0.0231 ± 0.073
13,GCCCGCCA,0.0456 ± 0.056
14,CCTTGATC,-0.0826 ± 0.012
15,CGCCCCAG,-0.0528 ± 0.021
16,ACATGAAG,0.121 ± 0.0073
17,CACAATGG,-0.107 ± 0.015
18,CATCATTA,-0.192 ± 0.049
19,GAGCATGC,-0.248 ± 0.00061
20,AGCGGCGG,0.00717 ± 0.0067
21,AGCATATA,-0.237 ± 0.031
22,TTATATAA,-0.0846 ± 0.015
23,CTCTACAA,0.142 ± 0.055
24,GGGTCAGA,-0.162 ± 0.057
25,AGATACAA,-0.122 ± 0.044

row,Sequence,PBM E-score of 8-mer
1,CACCGAGA,0.0151 ± 0.0083
2,CCAACTGC,-0.104 ± 0.011
3,ACAGCGGA,-0.0398 ± 0.043
4,AAGCGGGA,-0.182 ± 0.029
5,AACCGCAC,0.125 ± 0.064
6,ATTGACAC,0.412 ± 0.0065
7,AAATCTGC,0.138 ± 0.061
8,GCTCGCCC,-0.213 ± 0.052
9,CGGAAGGA,-0.209 ± 0.012
10,ACTGATAC,0.13 ± 0.0021
11,ATGGTTCA,-0.00063 ± 0.045
12,GATAACTA,0.0165 ± 0.034
13,CTAGCATA,-0.0116 ± 0.041
14,AACCCGTA,-0.199 ± 0.011
15,CTGAGCGC,-0.0658 ± 0.099
16,AAGGAGTC,-0.147 ± 0.012
17,AAATGGTA,-0.00884 ± 0.042
18,CTTGATCC,-0.0113 ± 0.059
19,AAAATGCC,-0.19 ± 0.021
20,CCTTAGAA,-0.23 ± 0.033
21,GTTCACAA,0.3167 ± 0.0026
22,GCTGAGAC,-0.0471 ± 0.091
23,GATGCAAA,-0.0496 ± 0.062
24,CGAGCTAA,0.216 ± 0.018
25,GCTAATGA,0.0319 ± 0.089

row,Sequence,PBM E-score of 8-mer
1,AGGCCTAT,-0.23 ± 0.082
2,GCTGGAGA,-0.144 ± 0.034
3,AACATCCT,-0.0822 ± 0.039
4,GATGCCGA,-0.0789 ± 0.041
5,GGCGTGAC,0.386 ± 0.017
6,ACACTTGC,0.407 ± 0.013
7,GTATAACA,0.0166 ± 0.071
8,AGACGGCT,-0.0381 ± 0.046
9,GCCGGGTA,0.0619 ± 0.041
10,CGTCCGGC,-0.224 ± 0.068
11,AAACCGGT,-0.0406 ± 0.022
12,CCGGTTCA,-0.0841 ± 0.025
13,GCGGTCCA,-0.043 ± 0.019
14,GAGGTCAA,-0.295 ± 0.0062
15,GAAGAGGC,-0.0489 ± 0.055
16,ATCCAACC,-0.0271 ± 0.073
17,AGCGTAGG,-0.0926 ± 0.0022
18,CATCTAGA,-0.275 ± 0.013
19,ACTTTTAG,0.0831 ± 0.084
20,TGTTAACA,0.38 ± 0.0039
21,ACGTGTCG,0.385 ± 0.022
22,GATTCGGA,-0.1891 ± 0.0013
23,GCTAGGAC,-0.0839 ± 0.039
24,TCCCTCAA,-0.203 ± 0.016
25,GGATATAA,-0.194 ± 0.03

row,Sequence,PBM E-score of 8-mer
1,CCTACCCA,-0.133 ± 0.026
2,ATGGTCGC,0.066 ± 0.016
3,CATTGGCC,-0.0667 ± 0.0014
4,ATACTCAG,-0.225 ± 0.015
5,CCATGATA,-0.174 ± 0.047
6,AGAGACCT,-0.27 ± 0.031
7,GTGCACCA,-0.1545 ± 0.0015
8,ACATAAGC,-0.062 ± 0.015
9,ACACACAT,0.288 ± 0.013
10,GACTCTCA,0.0229 ± 0.0083
11,GCCTCGGA,-0.0576 ± 0.022
12,CAGTTGAG,0.0425 ± 0.022
13,ACACAGCC,-0.173 ± 0.01
14,GCTGCGAA,0.296 ± 0.0077
15,CGACACAA,0.212 ± 0.064
16,AGATCACT,0.0336 ± 0.011
17,GGTTCTTA,-0.0403 ± 0.11
18,TACGTCTA,-0.309 ± 0.026
19,GGCCGGGA,-0.284 ± 0.02
20,CAGATAGC,0.111 ± 0.0016
21,AATCACAT,0.182 ± 0.076
22,AAGTACTT,-0.00166 ± 0.016
23,AGGTCGTC,-0.0167 ± 0.06
24,AAGCGTGG,0.0213 ± 0.089
25,AGAACGCT,-0.0145 ± 0.021

row,Sequence,PBM E-score of 8-mer
1,AAGAAATT,-0.116 ± 0.13
2,GACCTACA,-0.125 ± 0.019
3,CCAATACG,-0.0971 ± 0.048
4,GACACGGA,0.118 ± 0.012
5,TTCCAGAA,-0.234 ± 0.033
6,CTTACCCA,-0.0254 ± 0.00088
7,GAGATACA,-0.0338 ± 0.0033
8,AGGATCAG,-0.201 ± 0.022
9,CTGCAATA,-0.204 ± 0.032
10,ACTTCAGC,-0.0973 ± 0.03
11,GATAGGAA,-0.201 ± 0.044
12,GGATTACC,-0.179 ± 0.019
13,TGTGACAA,0.42 ± 0.028
14,GTTTCCTA,-0.149 ± 0.068
15,ACAGCAAC,0.00556 ± 0.07
16,ATCCTAAG,-0.0624 ± 0.055
17,AAAACGGA,-0.0616 ± 0.0082
18,CATTGTAC,-0.241 ± 0.04
19,CGTATCAC,0.209 ± 0.024
20,AAAGACGT,-0.108 ± 0.008
21,CATGGTAG,-0.144 ± 0.062
22,GATACAAA,-0.169 ± 0.032
23,CAGCGGGG,0.056 ± 0.072
24,ATTATCGA,0.0846 ± 0.05
25,GGGGTCGA,0.0145 ± 0.026

row,Sequence,PBM E-score of 8-mer
1,GACTGAGC,-0.198 ± 0.013
2,CATCATAC,-0.119 ± 0.039
3,ATATCGAG,-0.157 ± 0.02
4,ACGAAGCA,-0.135 ± 0.0054
5,AATGCTCT,-0.194 ± 0.053
6,CCCTCCTA,-0.0631 ± 0.076
7,GCAAATAC,-0.064 ± 0.092
8,GCCTAGTA,-0.0564 ± 0.01
9,AGAGTTAC,-0.172 ± 0.034
10,CATTATAA,-0.112 ± 0.073
11,GATGGAAC,-0.0526 ± 0.053
12,AATGTTTG,-0.177 ± 0.022
13,ACAGTTGG,0.192 ± 0.02
14,AAGCATAG,-0.307 ± 0.013
15,TAGACAGA,-0.0581 ± 0.028
16,ACCGATTG,-0.0556 ± 0.022
17,AACATGCT,-0.192 ± 0.038
18,GTAACGAA,-0.0904 ± 0.066
19,CAATATTG,0.0273 ± 0.1
20,AGATTCAA,-0.153 ± 0.007
21,AATTGTCA,0.339 ± 0.015
22,CGGGGCCC,-0.2092 ± 0.00056
23,CCCATACG,-0.116 ± 0.078
24,CGTATGCA,-0.0979 ± 0.032
25,AAAAGAGT,-0.157 ± 0.041

row,Sequence,PBM E-score of 8-mer
1,AGAGAGGC,-0.129 ± 0.017
2,CAGCCAGA,-0.0394 ± 0.019
3,GAAAGCTC,-0.121 ± 0.017
4,GAGGGTCA,-0.08798 ± 0.0008
5,GTACATGA,-0.0366 ± 0.016
6,CACCACGC,0.176 ± 0.08
7,CAACGAGG,-0.089 ± 0.031
8,CATAAGCC,-0.275 ± 0.051
9,CTGGCATA,0.0404 ± 0.058
10,TCTAGTCA,-0.24 ± 0.039
11,CCGCGGTA,-0.134 ± 0.0082
12,CAACGAGA,-0.0477 ± 0.027
13,GCTCTTAC,-0.271 ± 0.078
14,TGCTCAAA,-0.00795 ± 0.036
15,CGGTCCTC,-0.186 ± 0.054
16,CAGGTGAC,0.4485 ± 0.0027
17,GGTCATGA,-0.329 ± 0.011
18,CGAAACTA,0.0184 ± 0.0051
19,CCTCGCGC,0.337 ± 0.024
20,AGTGCAAT,0.0547 ± 0.033
21,ATCTAGAG,0.0499 ± 0.037
22,ATCTATGA,-0.158 ± 0.024
